# The other results are listed elsewhere or left out.
# B1: Sebin2 (Coprinopsis cinerea), A8PE78 (protein)
# chain: MTTPFYAYCHNVQDDNTWRLGLVFANRSTADEWWRAISEATSSIPITKSITRVTPQYYTHDIRVWNMYNFFVDGNIKSISDKFRGRLFITLEYDRSGRGVSVFPPLHIVDHVSGNWYYIRSKTAPHLFWFYDETRNAIYASKEKRTRFKVSIRNPSPQTPKDAIMINSDDVVIHIKESLYVGVDSYLGHIIPTRAYRTFKFGELEGGAIAGIEVAENAEERCSSTFDGASLYFVGPDSSSPGEPWELV
# Experiments:
# Experiment in all cases: glycan array binding signal (z-score within array); higher = stronger binding
# Details in all cases: glycan notation: IUPAC condensed, linker removed
# GalNAc(b1-4)GlcNAc = biological target: GalNAc(b1-4)GlcNAc
# Method in brief: (§1)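 Arrays were curated from the Consortium for Functional Glycomics database, 3228 in total, and kept only where the protein sequence was available. Binding is expressed as a within-array Z-score. This score was averaged across arrays of the same protein sequence at different concentrations or buffers and across linkers, and negative values can be read as non-binding.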
# [1] = biological target: GalNAc(b1-4)GlcNAc(b1-2)Man
# Method in brief: as §1
# [2] = biological target: GalNAc(b1-4)GlcNAc(b1-2)Man(a1-3)[GalNAc(b1-4)GlcNAc(b1-2)Man(a1-6)]Man(b1-4)GlcNAc(b1-4)GlcNAc
# Method in brief: as §1
# [3] = biological target: GalNAc(b1-4)GlcNAc(b1-3)GalNAc(b1-4)GlcNAc
# Method in brief: as §1
# GalNAc(b1-4)GlcNAc6S = biological target: GalNAc(b1-4)GlcNAc6S
# Method in brief: as §1
# GalNAc(b1-6)GalNAc = biological target: GalNAc(b1-6)GalNAc
# Method in brief: as §1
# GalNAc3S(b1-4)GlcNAc = biological target: GalNAc3S(b1-4)GlcNAc
# Method in brief: as §1
# GalNAc3S(b1-4)GlcNAc3S = biological target: GalNAc3S(b1-4)GlcNAc3S
# Method in brief: as §1
# [4] = biological target: GalNAc3S(b1-4)[Fuc(a1-3)]GlcNAc
# Method in brief: as §1
# GalNAc4S6S(b1-4)GlcNAc = biological target: GalNAc4S6S(b1-4)GlcNAc
# Method in brief: as §1
# GalNAc6S(b1-4)GlcNAc = biological target: GalNAc6S(b1-4)GlcNAc
# Method in brief: as §1
# Glc(a1-4)Glc = biological target: Glc(a1-4)Glc
# Method in brief: as §1
# [5] = biological target: Glc(a1-4)Glc(a1-4)Glc(a1-4)Glc
# Method in brief: as §1
# Glc(a1-6)Glc(a1-6)Glc = biological target: Glc(a1-6)Glc(a1-6)Glc
# Method in brief: as §1
# [6] = biological target: Glc(a1-6)Glc(a1-6)Glc(a1-6)Glc
# Method in brief: as §1
# Glc(b1-4)Glc = biological target: Glc(b1-4)Glc
# Method in brief: as §1
# Glc(b1-6)Glc = biological target: Glc(b1-6)Glc
# Method in brief: as §1
# GlcA(b1-3)Gal = biological target: GlcA(b1-3)Gal
# Method in brief: as §1
# GlcA(b1-3)GlcNAc = biological target: GlcA(b1-3)GlcNAc
# Method in brief: as §1
# GlcA(b1-6)Gal = biological target: GlcA(b1-6)Gal
# Method in brief: as §1
# [7] = biological target: GlcA3S(b1-3)Gal(b1-4)GlcNAc(b1-2)Man
# Method in brief: as §1
# [8] = biological target: GlcA3S(b1-3)Gal(b1-4)GlcNAc(b1-3)Gal(b1-4)Glc
# Method in brief: as §1
# [9] = biological target: GlcNAc(a1-3)Gal(b1-4)GlcNAc
# Method in brief: as §1
# [10] = biological target: GlcNAc(a1-4)Gal(b1-3)GlcNAc
# Method in brief: as §1
# [11] = biological target: GlcNAc(a1-4)Gal(b1-4)GalNAc
# Method in brief: as §1
# [12] = biological target: GlcNAc(a1-4)Gal(b1-4)GlcNAc
# Method in brief: as §1
# [13] = biological target: GlcNAc(a1-4)Gal(b1-4)GlcNAc(b1-3)Gal(b1-4)Glc
# Method in brief: as §1
# [14] = biological target: GlcNAc(a1-4)Gal(b1-4)GlcNAc(b1-3)Gal(b1-4)GlcNAc
# Method in brief: as §1
# [15] = biological target: GlcNAc(a1-4)Gal(b1-4)GlcNAc(b1-3)Gal(b1-4)GlcNAc(b1-3)Gal(b1-4)GlcNAc
# Method in brief: as §1
# [16] = biological target: GlcNAc(a1-4)Gal(b1-4)GlcNAc(b1-3)Gal(b1-4)[Fuc(a1-3)]GlcNAc(b1-3)Gal(b1-4)[Fuc(a1-3)]GlcNAc
# Method in brief: as §1
# [17] = biological target: GlcNAc(a1-6)Gal(b1-4)GlcNAc
# Method in brief: as §1
# [18] = biological target: GlcNAc(b1-2)Gal(b1-3)GalNAc
# Method in brief: as §1
# [19] = biological target: GlcNAc(b1-2)Man(a1-3)[GlcNAc(b1-2)Man(a1-6)]Man(b1-4)GlcNAc(b1-4)GlcNAc
# Method in brief: as §1
# [20] = biological target: GlcNAc(b1-2)Man(a1-3)[GlcNAc(b1-2)Man(a1-6)]Man(b1-4)GlcNAc(b1-4)[Fuc(a1-6)]GlcNAc
# Method in brief: as §1
# [21] = biological target: GlcNAc(b1-2)Man(a1-3)[GlcNAc(b1-4)][GlcNAc(b1-2)Man(a1-6)]Man(b1-4)GlcNAc(b1-4)GlcNAc
# Method in brief: as §1
# [22] = biological target: GlcNAc(b1-2)Man(a1-3)[GlcNAc(b1-4)][GlcNAc(b1-2)Man(a1-6)]Man(b1-4)GlcNAc(b1-4)[Fuc(a1-6)]GlcNAc
# Method in brief: as §1
# [23] = biological target: GlcNAc(b1-2)[GlcNAc(b1-4)]Man(a1-3)[GlcNAc(b1-2)Man(a1-6)]Man(b1-4)GlcNAc(b1-4)GlcNAc
# Method in brief: as §1
binder,measurement,setting,value
B1,glycan array binding signal (z-score),GalNAc(b1-4)GlcNAc,0.195
same,glycan array binding signal (z-score),[1],-0.484
same,glycan array binding signal (z-score),[2],-0.25
same,glycan array binding signal (z-score),[3],-0.542
same,glycan array binding signal (z-score),GalNAc(b1-4)GlcNAc6S,-0.228
same,glycan array binding signal (z-score),GalNAc(b1-6)GalNAc,-0.281
same,glycan array binding signal (z-score),GalNAc3S(b1-4)GlcNAc,-0.031
same,glycan array binding signal (z-score),GalNAc3S(b1-4)GlcNAc3S,0.462
same,glycan array binding signal (z-score),[4],0.2
same,glycan array binding signal (z-score),GalNAc4S6S(b1-4)GlcNAc,0.452
same,glycan array binding signal (z-score),GalNAc6S(b1-4)GlcNAc,-0.249
same,glycan array binding signal (z-score),Glc(a1-4)Glc,-0.203
same,glycan array binding signal (z-score),[5],-0.019
same,glycan array binding signal (z-score),Glc(a1-6)Glc(a1-6)Glc,-0.094
same,glycan array binding signal (z-score),[6],0.259
same,glycan array binding signal (z-score),Glc(b1-4)Glc,-0.378
same,glycan array binding signal (z-score),Glc(b1-6)Glc,-0.314
same,glycan array binding signal (z-score),GlcA(b1-3)Gal,0.175
same,glycan array binding signal (z-score),GlcA(b1-3)GlcNAc,-0.091
same,glycan array binding signal (z-score),GlcA(b1-6)Gal,1.12
same,glycan array binding signal (z-score),[7],0.494
same,glycan array binding signal (z-score),[8],1.64
same,glycan array binding signal (z-score),[9],-0.472
same,glycan array binding signal (z-score),[10],-0.251
same,glycan array binding signal (z-score),[11],-0.031
same,glycan array binding signal (z-score),[12],-0.04
same,glycan array binding signal (z-score),[13],-0.066
same,glycan array binding signal (z-score),[14],-0.047
same,glycan array binding signal (z-score),[15],-0.357
same,glycan array binding signal (z-score),[16],0.592
same,glycan array binding signal (z-score),[17],-0.158
same,glycan array binding signal (z-score),[18],-0.059
same,glycan array binding signal (z-score),[19],-0.047
same,glycan array binding signal (z-score),[20],-0.213
same,glycan array binding signal (z-score),[21],0.043
same,glycan array binding signal (z-score),[22],-0.505
same,glycan array binding signal (z-score),[23],-0.106
